# Data taken from PubChem BioAssay AID1508642 (National Center for Advancing Translational Sciences (NCATS), 2021).
# Screen size: about 43,000 compounds; about 200 (0.47%) were called active. Inconclusive results (about 12%) are left out. Calls come from the whole dose curve; as a rule, active = well fitted cell-killing curve with a large enough effect; inconclusive = small, poorly fitted or top-dose-only effect, or effect the other way; inactive = flat fitted curve, though single readings scatter. The list shows a part of the results.
# Assay: Cell viability qHTS assay in S16 Pmp22-F2sN cells; note: nearly all actives have a fitted effect of over 65% in size
# Conditions: S16 Pmp22-F2sN Schwann cells (luciferase reporters placed in the Pmp22 gene) viability, CellTiter-Glo, 24 h; series mostly up to 57.5 µM; activity change, negative = cytotoxicity: at the top concentration
# How it was run: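 S16 Schwann cells carrying the Pmp22-F2sN reporter, seeded in 1536-well format, were exposed to library compounds for 24 h at 37C. Viability was read as CellTiter-Glo luminescence after 15 min at room temperature.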
# % is set by controls: 0 for no effect and ±100 for the full control effect.
row,Structure (SMILES),"activity change, negative = cytotoxicity"
1,COc1ccc(CNC(=O)c2cc(=O)c3cc(C)ccc3o2)cc1,inactive: -13.2%
2,Cc1cccc(C)c1NS(=O)(=O)c1ccc(NS(=O)(=O)c2ccc3c(c2)OCCO3)cc1,inactive: -4.37%
3,Cc1ccccc1NC(=O)CCC(=O)N1CC(C)Sc2ccccc21 (stereo unspecified),inactive: -6.36%
4,COc1cccc(CNC(=O)CSC2=Nc3ccccc3C3=NC(C(C)C)C(=O)N23)c1 (stereo unspecified),inactive: 3.14%
5,O=C(Nc1cccc(Cl)c1Cl)c1cc(S(=O)(=O)NCCc2ccccc2)ccc1F,inactive: -3.13%
6,O=C(CN1C(=O)C2(SCC(=O)N2c2ccccc2)c2ccccc21)NCc1ccccc1 (stereo unspecified),inactive: 8.75%
7,NC(=O)CSc1ncc2c(n1)-c1ccccc1N(Cc1ccc(Cl)cc1)S2(=O)=O,inactive: 15.6%
8,O=C(c1cc2ccc3cccnc3c2[nH]1)N1CCN(c2ccc(Cl)cc2)CC1,inactive: -4.56%
9,Cc1c(Cl)cccc1NC(=O)Cn1nnc2sc3c(c2c1=O)CCCC3,inactive: 9.45%
10,COc1ccc(-c2nc3ccccc3o2)cc1NC(=O)c1cc([N+](=O)[O-])ccc1N1CCOCC1,inactive: 7.21%
11,Cc1ccc(S(=O)(=O)c2cn(CC(=O)Nc3ccc4c(c3)OCO4)c3ccc(C)cc3c2=O)cc1,inactive: 7.68%
12,COc1ccc(-c2ccc(CCC(=O)O)n2-c2ccccc2C(F)(F)F)cc1,inactive: -24.7%
13,CCC1CN(CC(=O)NCc2cccc(Br)c2)c2ccccc2S1 (stereo unspecified),inactive: -20.5%
14,Cc1ccccc1OCc1nnc(SCc2cc(=O)c3cc(F)ccc3[nH]2)n1C,inactive: -27.2%
15,N#C/C(=C\c1cccc(F)c1)c1nc(-c2cc3ccccc3oc2=O)cs1,inactive: 19.9%
16,Cc1ccc2c(c1)c1c(c(=O)n(Cc3ccccc3)c(=O)n1Cc1cccc(F)c1)n2C,inactive: 5.79%
17,CCOC(=O)CN(Cc1ccccc1)C(C(=O)NC1CCCCC1)c1ccccc1 (stereo unspecified),inactive: -12.5%
18,CCOc1ccc(-c2cc(C)n3nc(C(=O)Nc4ccc(C)c(C)c4)cc3n2)cc1,inactive: 7.39%
19,CCc1nnc(SCC(=O)Nc2ccc(OC)c(OC)c2)c2cc3occc3n12,inactive: 12.4%
20,CCc1ccc(N2CC(C)Cn3c2nc2c3c(=O)n(CC(=O)O)c(=O)n2C)cc1 (stereo unspecified),inactive: 9.9%
21,COC(=O)Cc1c(C)nc2nc(NCc3ccc(Br)cc3)[nH]n2c1=O,inactive: -2.03%

row,Structure (SMILES),"activity change, negative = cytotoxicity"
1,CCOc1ccc(-n2cc(-c3ccccc3)c3c(NCc4ccccc4)ncnc32)cc1,inactive: -11.4%
2,COC(=O)Cc1c(C)c2ccc3c(c2oc1=O)CN(Cc1ccc(Cl)cc1)CO3,inactive: -1.39%
3,COc1cccc(NC(=O)C2CC(=O)N(c3ccc(Br)cc3)C2)c1 (stereo unspecified),inactive: 6.81%
4,COc1ccc(NC(=O)CCn2cnnn2)cc1,inactive: 9.06%
5,COc1ccc(CNC(=O)C2CCN(S(=O)(=O)N3CCC(C)CC3)CC2)c(OC)c1,inactive: 5.55%
6,Cc1ccc(NS(=O)(=O)c2cn(C)c(C)n2)c(Br)c1,inactive: 3.48%
7,COc1cc(CN(C(=O)c2ccc(C)cc2)C2CCS(=O)(=O)C2)cc(OC)c1OC (stereo unspecified),inactive: -7.11%
8,CCN(CC)c1ccc(NC(=O)Cn2cc3c(n2)CCCC3)c(C)c1,inactive: -20.4%
9,Cn1c(=O)n(C)c2cc(N3CCCCC3)c(NC(=O)Nc3ccc(Br)cc3)cc21,inactive: -4.21%
10,CCc1ccc(NC(=O)CSc2nc3c([nH]c4ccccc43)c(=O)n2C)cc1,inactive: 16.7%
11,Cc1c(NC(=O)C(C)(C)C)cccc1-c1nc2ccccc2s1,inactive: -3.36%
12,CCOc1ccccc1NC(=O)Cn1c(=O)n(-c2ccc(Cl)cc2)c(=O)c2oc3ccccc3c21,inactive: -5.85%
13,Cn1cc(S(=O)(=O)N2CCc3ccccc32)cc1C(=O)Nc1ccc(C(F)(F)F)cc1,inactive: -7.87%
14,COc1ccc(N2CCN(C(CNC(=O)c3c(F)cccc3F)c3ccc4c(c3)OCO4)CC2)cc1 (stereo unspecified),inactive: 0.0536%
15,CCOC(=O)c1cc2c(=O)n3ccccc3nc2n(CC2CCCO2)c1=NC(=O)c1ccccc1OCC (stereo unspecified),inactive: 5.7%
16,Cc1ccc(-n2c(=O)c3ccc(C(=O)NCc4ccccc4Cl)cc3n(Cc3cccc(F)c3)c2=O)cc1,inactive: 0.583%
17,Cc1ccc(CNC(=O)C2CCCN(c3nn4cc(-c5ccc(C)cc5)nc4s3)C2)cc1 (stereo unspecified),inactive: 5.56%
18,CCOc1ccccc1NC(=O)CSc1nnc(CC)c(CC)n1,inactive: -5.81%
19,CCCCC(CC)CNC(=O)c1ccc(Cn2c(=O)[nH]c3cc(OC)c(OC)cc3c2=O)cc1 (stereo unspecified),inactive: -14.2%
20,CCN1c2ccccc2-c2nc(SCC(=O)Nc3cc(OC)cc(OC)c3)ncc2S1(=O)=O,inactive: 2.59%
21,CCCN(C(=O)c1c(C)oc2ncn(CC(C)C)c(=O)c12)c1ccccc1C,inactive: 9.91%

row,Structure (SMILES),"activity change, negative = cytotoxicity"
1,CC(C)n1c(SCC(=O)c2ccc(F)cc2)nc2c(sc3ccccc32)c1=O,inactive: 5.97%
2,COc1ccc(CCNC(=O)c2c(Nc3ccccc3C)sc(C(=O)c3ccccc3)c2N)cc1OC,inactive: -3.27%
3,Cc1cccc2nc(Cn3c(=O)n(-c4ccccc4)c(=O)c4c5c(sc43)CCC5)cc(=O)n12,inactive: -0.733%
4,Cc1ccc(O)c(NC(=O)C2=CC(c3cccs3)=NS(=O)(=O)N2C)c1,inactive: 5.54%
5,Cc1ccccc1OCC(=O)Nc1nnc(SCc2cc(=O)n3cccc(C)c3n2)s1,inactive: -2.41%
6,COc1cccc(CNC(=O)c2cc3cc(C)ccc3n2C)c1,inactive: -1.65%
7,COc1cccc(CN2CCCN(Cc3ccc(F)cc3)S2(=O)=O)c1,inactive: 1.02%
8,COc1ccc(-n2c(=O)c3ccccc3n(Cc3ccc(F)cc3Cl)c2=O)cc1OC,inactive: 1.31%
9,Clc1cccc(-c2nnc(CN3CCN(c4ccccn4)CC3)o2)c1,inactive: 1.83%
10,Cc1cc(S(=O)(=O)Nc2cc3c(cc2N2CCOCC2)n(C)c(=O)n3C)ccc1F,inactive: -4.81%
11,CCc1nc2ccc(C(=O)NCCc3ccc(SC)cc3)cc2nc1CC,inactive: -1.47%
12,COc1ccc(NC(=O)C(CC(C)C)NC(=O)C2CCCCC2)c(OC)c1 (stereo unspecified),inactive: -1.91%
13,CC(=O)Nc1nonc1-c1nnc(SCC(=O)Nc2ccccc2Cl)n1C,inactive: 0.992%
14,CCOc1ccc(CNC(=O)C2CCN(C3=NS(=O)(=O)C(c4ccc(C)cc4)=C3CC)CC2)cc1,inactive: -17.7%
15,COc1ccc(NC(=O)C2CCN(C(=O)c3sc4nc[nH]c(=O)c4c3C)CC2)c(OC)c1,inactive: 3.47%
16,CCc1ccccc1N1CC(c2nnc(NC(=O)c3ccco3)s2)CC1=O (stereo unspecified),inactive: -2.53%
17,CCN(CC)S(=O)(=O)c1ccc2c(c1)N(CC(=O)N1CCN(c3cc(Cl)ccc3C)CC1)C(=O)CO2,inactive: -7.57%
18,CC(=O)OCc1cnc(C)c2oc(=O)c(C(=O)Nc3ccc(F)cc3C)cc12,inactive: -0.102%
19,Cc1cccc(N2CCN(c3nc4ccccc4c4nc(-c5ccccc5)nn34)CC2)c1C,inactive: -3.46%
